In the RNAGym collection of RNA variant scans (doi:10.7554/elife.90254):
The source gives no read counts; variants with many changes may rest on few reads.

B1: LINE1-mini (parent)
chain: GGCAGAGCUCAACACAGCGUGGCAAAGUGGCUGUGGCUAGACUGCC

Variants of: B1
Test: self-cleavage, relative activity (ratio to wild type); higher = more cleavage; in vitro, sequencing; the parent is a self-cleaving ribozyme

| Variant | self-cleavage |
| --- | --- |
| G5U G30A G33U C37U | 0.17 |
| G5U G33C C42U U43C | 0.03 |
| A6C C10G U20G G35U | 0 |
| A6G A16G G17U | 0.26 |
| G5U C31A A41G | 0.07 |
| G5U G21U G40A | 0 |
| A6C G29U U43A | 0.06 |
| A6C C13A A16U U20G | 0.02 |
| G5U G17U G22A C45A | 0.03 |
| G5U U9C G17U C42A | 0.09 |
| A6G C8U C13G C37G | 0.01 |
| A6G C8A G36A | 0.05 |
| A6C A12G A25C G29U C45G | 0.05 |
| A6G C8G A12U G19A G22A | 0.02 |
| G5U U9A G22A U32G | 0.06 |
| G5U U9A C10A A25U | 0.02 |
| A6C G17U U32A | 0.04 |
| A6C A12C G17A G21A G30A G35C | 0.02 |
| A6C U20G U32A A39U G40A | 0.07 |
| A6C C23A C31A | 0.03 |
| A6C G27U G36U | 0.05 |

| Variant | self-cleavage |
| --- | --- |
| G5U G7C U9C G19C A26U C42U | 0.01 |
| A6C C18G U43C | 0.07 |
| G5U G7C C13U A16U | 0.02 |
| G5U G33U C45G | 0.02 |
| G5U U9G G22A | 0.06 |
| G5U G22C A24C | 0.02 |
| G5U G7C G27C | 0.07 |
| G5U G7U G21U A24U G44C | 0.16 |
| G5U G19A G33C U38C | 0.01 |
| A6C G30U C31U G36C | 0.04 |
| A6C C10U C18U C45G | 0.01 |
| G5U G30U G35U | 0.02 |
| G5U C42G C46A | 0.02 |
| G5U G21U G36A | 0.1 |
| A6C G21U G33C | 0.03 |
| G5U G22A G27C U34C C42G | 0.05 |
| A6C C10U G17U C18U C37U C42U | 0 |
| A6G A11U G30U | 0.01 |
| A6C A11C A25C G27C U32A G36C U38A | 0 |
| A6C C18A C31A U38A | 0.04 |
| G5U G17U G19A G33C C37A | 0.08 |

| Variant | self-cleavage |
| --- | --- |
| A6C G19C G30U | 1.46 |
| A6C G19C A39G | 0.13 |
| G5U U9A G17A | 0.11 |
| G5U G21C G36C | 0.02 |
| A6C G19A U20G G33C | 0.03 |
| G5U G7C C31G U32A | 0.03 |
| G5U G17A G21A G40U | 0.06 |
| A6G C8U G22A G40A C42U | 0.02 |
| G5U G17A G21U G33A G40U | 0.02 |
| A6C C18A U34G | 0.05 |
| A6C U9A G33A A41C | 0.07 |
| A6C C18A G29U C31U | 0 |
| A6C C15G A16U C31A U32C G44U | 0.03 |
| A6C C8U G19C U28C | 0.14 |
| A6G A11G U38C | 0 |
| G5U C18G U20A U43A | 0.04 |
| A6C C10A A24G G29U C42A | 0 |
| A6C C8G U9C A11U | 0.03 |
| A6C C8G A14G G36U | 0.03 |
| A6C C10A G36U C37A | 0.01 |
| A6C C8A C15U A16G C23A C31A | 0.12 |

| Variant | self-cleavage |
| --- | --- |
| A6G A12U C45U | 0.1 |
| G5U C23U C42A | 1.04 |
| A6C C18U G44C | 0.12 |
| G5U G19U G21A G29U U34C | 0.01 |
| G5U G29U G30U G40A C46A | 0.02 |
| A6C C10G G17C C23U | 0.05 |
| G5U U20A A25G | 0.01 |
| A6C U32G U34G | 0.02 |
| G5U G7U G19A G40A | 0.46 |
| G5U G27A G35U C37A | 0.07 |
| G5U G19A G44A C45U | 0.11 |
| G5U C18A C45A | 0.05 |
| G5U G7U C13A U34A | 0.23 |
| G5U G7U A12U A16C C23U G27A G29C U32C U38A | 0 |
| A6G A26G C31A G36U U43A | 0.02 |
| G5U G21C G40C | 0.04 |
| A6C G33C G36A C37A A41U C42A | 0.02 |
| A6C C18U A39G | 0.07 |
| A6C A14U C46G | 0.17 |
| A6C G30A C45G | 0.07 |
